Laboratory results reported in the supplement of paper PMC4604168 (melanoma cell lines).
This is one part of the list. Single values are uncertain, as repeats are few or missing.

Assays:
Assay in all cases: cell count relative to DMSO control; melanoma cells; higher = more viable cells
Details in all cases: library dose: standard library concentration; 72 h
G361 = system: G361
IPC-298 = system: IPC-298
IST-MEL1 = system: IST-MEL1
LB2518-MEL = system: LB2518-MEL
LOXIMVI = system: LOXIMVI
MEL-HO = system: MEL-HO
MZ2-MEL = system: MZ2-MEL
MeWo = system: MeWo
RPMI7951 = system: RPMI7951
RVH-421 = system: RVH-421
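Note: cells treated in 1,536-well plates, then fixed and DAPI-stained, with nuclei counted from automated high-throughput microscope images.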

SMILES | cell count (G361) [%] | cell count (IPC-298) [%] | cell count (IST-MEL1) [%] | cell count (LB2518-MEL) [%] | cell count (LOXIMVI) [%] | cell count (MEL-HO) [%] | cell count (MZ2-MEL) [%] | cell count (MeWo) [%] | cell count (RPMI7951) [%] | cell count (RVH-421) [%]
CC[C@]1(O)C[C@H]2CN(CCc3c([nH]c4ccccc34)[C@@](C(=O)OC)(c3cc4c(cc3OC)N(C=O)[C@H]3[C@@](O)(C(=O)OC)[C@H](OC(C)=O)[C@]5(CC)C=CCN6CC[C@]43[C@@H]65)C2)C1 [vincristine] + O=C(O)[C@@H]1[O][Sb](=[O])([O][Sb]2(=[O])[O][C@H]([C@H](O)CO)[C@H](O)[C@H](C(=O)O)[O]2)[O][C@H]([C@H](O)CO)[C@@H]1O [stibogluconate] (first compound 0.0005 µM, partner dose 10 µM) | 97.8 | 113 | 108 | 105 | 49 | 116 | 128 | 117 | 109 | 123
Cc1cc(Nc2cc(N3CCN(C)CC3)nc(Sc3ccc(NC(=O)C4CC4)cc3)n2)n[nH]1 [Tozasertib] + CC(C)CCN1c2nc(Nc3cc(F)c(O)c(F)c3)ncc2N(C)C(=O)C1C [BID1870] (first compound 0.03 µM, partner dose 1 µM) | 72.9 | 79.5 | 79.7 | – | 90.8 | 77.5 | – | 65.3 | 68.2 | 82
N#CC[C@H](C1CCCC1)n1cc(-c2ncnc3[nH]ccc23)cn1 [ruxolitinib] + NC(=O)c1ccc(N(C(N)=O)c2c(F)cccc2F)nc1-c1ccc(F)cc1F [VX702] (first compound 5 µM, partner dose 2 µM) | 70 | 95.5 | 97.4 | – | 120 | 87.6 | – | 88 | 96 | 88.1
CC[C@]1(O)C[C@H]2CN(CCc3c([nH]c4ccccc34)[C@@](C(=O)OC)(c3cc4c(cc3OC)N(C=O)[C@H]3[C@@](O)(C(=O)OC)[C@H](OC(C)=O)[C@]5(CC)C=CCN6CC[C@]43[C@@H]65)C2)C1 [vincristine] + Cn1c(=O)n(-c2ccc(C(C)(C)C#N)cc2)c2c3cc(-c4cnc5ccccc5c4)ccc3ncc21 [NVP-BEZ235] (first compound 0.0005 µM, partner dose 0.02 µM) | 64.2 | 73.6 | 63.4 | – | 39.3 | 66.9 | – | 63.8 | 58.3 | 62.9
Cc1cc(Nc2cc(N3CCN(C)CC3)nc(Sc3ccc(NC(=O)C4CC4)cc3)n2)n[nH]1 [Tozasertib] + Cc1cc(N2CCOCC2)cc2[nH]c(-c3c(NC[C@@H](O)c4cccc(Cl)c4)cc[nH]c3=O)nc12 [BMS536924] (first compound 0.03 µM, partner dose 1 µM) | 77.2 | 95.3 | 67.1 | – | 98 | 82.3 | – | 50.9 | 54.3 | 112
CC[C@]1(O)C[C@H]2CN(CCc3c([nH]c4ccccc34)[C@@](C(=O)OC)(c3cc4c(cc3OC)N(C=O)[C@H]3[C@@](O)(C(=O)OC)[C@H](OC(C)=O)[C@]5(CC)C=CCN6CC[C@]43[C@@H]65)C2)C1 [vincristine] + COc1ccc(-c2ccc3c(N4CCOCC4)nc(N4C[C@@H](C)O[C@@H](C)C4)nc3n2)cc1CO [KU0063794] (first compound 0.0005 µM, partner dose 0.1 µM) | 85 | 76 | 90.7 | 81.1 | 92 | 91 | 90.3 | 54.2 | 66.7 | 74.1
N#CC[C@H](C1CCCC1)n1cc(-c2ncnc3[nH]ccc23)cn1 [ruxolitinib] + OCCn1cc(-c2cnc3nnn(Cc4ccc5ncccc5c4)c3n2)cn1 [PF04217903] (first compound 5 µM, partner dose 5 µM) | 76.7 | 94.8 | 86.2 | – | 80.2 | 74.4 | – | 83.1 | 63.7 | 95.2
CC[C@]1(O)C[C@H]2CN(CCc3c([nH]c4ccccc34)[C@@](C(=O)OC)(c3cc4c(cc3OC)N(C=O)[C@H]3[C@@](O)(C(=O)OC)[C@H](OC(C)=O)[C@]5(CC)C=CCN6CC[C@]43[C@@H]65)C2)C1 [vincristine] + CC(=O)O[C@@]12CO[C@@H]1C[C@H](O)[C@@]1(C)C(=O)[C@H](O)C3=C(C)[C@@H](OC(=O)[C@H](O)[C@@H](NC(=O)OC(C)(C)C)c4ccccc4)C[C@@](O)([C@@H](OC(=O)c4ccccc4)[C@H]21)C3(C)C [Docetaxel] (first compound 0.0005 µM, partner dose 0.0005 µM) | 14.3 | 37.6 | 47.6 | – | 50.6 | 37.1 | – | 27.1 | 22.9 | 53.3
N#CC[C@H](C1CCCC1)n1cc(-c2ncnc3[nH]ccc23)cn1 [ruxolitinib] + C=CCn1c(=O)c2cnc(Nc3ccc(N4CCN(C)CC4)cc3)nc2n1-c1cccc(C(C)(C)O)n1 [MK1775] (first compound 5 µM, partner dose 0.1 µM) | 72.1 | 84.7 | 93.8 | – | 78.9 | 71.9 | – | 66.9 | 51.1 | 64.9
N#CC[C@H](C1CCCC1)n1cc(-c2ncnc3[nH]ccc23)cn1 [ruxolitinib] + C[C@@H](Oc1cc(-c2cnn(C3CCNCC3)c2)cnc1N)c1c(Cl)ccc(F)c1Cl [Crizotinib] (first compound 5 µM, partner dose 1 µM) | 72.4 | 86.6 | 102 | 84.5 | – | 108 | 116 | 89 | 78 | 91.7
CC[C@]1(O)C[C@H]2CN(CCc3c([nH]c4ccccc34)[C@@](C(=O)OC)(c3cc4c(cc3OC)N(C=O)[C@H]3[C@@](O)(C(=O)OC)[C@H](OC(C)=O)[C@]5(CC)C=CCN6CC[C@]43[C@@H]65)C2)C1 [vincristine] + COC(=O)c1sccc1S(=O)(=O)Nc1ccc(Nc2ccccc2)cc1OC [GSK0660] (first compound 0.0005 µM, partner dose 5 µM) | 57.2 | 68.5 | 44.9 | – | 55.8 | 54.8 | – | 24.4 | 19.3 | 51.2
Cc1cc(Nc2cc(N3CCN(C)CC3)nc(Sc3ccc(NC(=O)C4CC4)cc3)n2)n[nH]1 [Tozasertib] + Cc1cc([N+](=O)[O-])ccc1NS(=O)(=O)c1cc(Cl)ccc1Cl [FH535] (first compound 0.03 µM, partner dose 5 µM) | 49.1 | 58.4 | 60 | – | 84.6 | 51.9 | – | 76.1 | 66.7 | 59.1
CC[C@]1(O)C[C@H]2CN(CCc3c([nH]c4ccccc34)[C@@](C(=O)OC)(c3cc4c(cc3OC)N(C=O)[C@H]3[C@@](O)(C(=O)OC)[C@H](OC(C)=O)[C@]5(CC)C=CCN6CC[C@]43[C@@H]65)C2)C1 [vincristine] + O=C1NC(=O)/C(=C/c2ccc(-c3ccc(F)cc3O)o2)S1 [AS252424] (first compound 0.0005 µM, partner dose 5 µM) | 85.9 | 99.1 | 80.4 | – | 68.9 | 76.5 | – | 38.1 | 42.1 | 62.8
CC[C@]1(O)C[C@H]2CN(CCc3c([nH]c4ccccc34)[C@@](C(=O)OC)(c3cc4c(cc3OC)N(C=O)[C@H]3[C@@](O)(C(=O)OC)[C@H](OC(C)=O)[C@]5(CC)C=CCN6CC[C@]43[C@@H]65)C2)C1 [vincristine] + C[C@@H](Oc1cc(-c2cnn(C3CCNCC3)c2)cnc1N)c1c(Cl)ccc(F)c1Cl [Crizotinib] (first compound 0.0005 µM, partner dose 1 µM) | 113 | 91.7 | 108 | – | 113 | 87.6 | – | 80.5 | 109 | 76.4
N#CC[C@H](C1CCCC1)n1cc(-c2ncnc3[nH]ccc23)cn1 [ruxolitinib] + CCN(CC)CCNC(=O)c1c(C)[nH]c(/C=C2\C(=O)Nc3ccc(F)cc32)c1C [sunitinib] (first compound 5 µM, partner dose 2 µM) | 88.5 | 64.8 | 92 | – | 129 | 99.9 | – | 57.5 | 42.2 | 76.9
Cc1cc(Nc2cc(N3CCN(C)CC3)nc(Sc3ccc(NC(=O)C4CC4)cc3)n2)n[nH]1 [Tozasertib] + Cc1cc(Nc2cc(N3CCN(C)CC3)nc(/C=C/c3ccccc3)n2)n[nH]1 [ENMD2076] (first compound 0.03 µM, partner dose 0.2 µM) | 104 | 69.9 | 94.5 | – | 73.8 | 89.3 | – | 62.5 | 62.7 | 56
N#CC[C@H](C1CCCC1)n1cc(-c2ncnc3[nH]ccc23)cn1 [ruxolitinib] + Cn1sc(=O)n(Cc2ccccc2)c1=O [TDZD-8] (first compound 5 µM, partner dose 2 µM) | 77.1 | 90.5 | 89.1 | – | 125 | 96.8 | – | 80.3 | 74.3 | 135
N#CC[C@H](C1CCCC1)n1cc(-c2ncnc3[nH]ccc23)cn1 [ruxolitinib] + Cn1cc(/C=C2\C(=O)Nc3cccnc32)c2ccccc21 [GW441756] (first compound 5 µM, partner dose 2 µM) | 87.9 | 112 | 91.7 | 131 | 125 | 81.6 | – | 94.8 | 97.3 | 104
N#CC[C@H](C1CCCC1)n1cc(-c2ncnc3[nH]ccc23)cn1 [ruxolitinib] + N#Cc1c(O)c2c(-c3ccc(-c4ccccc4O)cc3)csc2[nH]c1=O [A769662] (first compound 5 µM, partner dose 10 µM) | 91.3 | 97 | 81.8 | – | – | 74.7 | 91.2 | 77.4 | 75.4 | 77.5
N#CC[C@H](C1CCCC1)n1cc(-c2ncnc3[nH]ccc23)cn1 [ruxolitinib] + COc1cc([C@@H]2c3cc4c(cc3[C@@H](O[C@@H]3O[C@@H]5CO[C@@H](C)O[C@H]5[C@H](O)[C@H]3O)[C@H]3COC(=O)[C@H]23)OCO4)cc(OC)c1O [etoposide] (first compound 5 µM, partner dose 0.1 µM) | 76.2 | 77.3 | 85.8 | – | 135 | 70.9 | 79.1 | 89.4 | 72.6 | 72.9
N#CC[C@H](C1CCCC1)n1cc(-c2ncnc3[nH]ccc23)cn1 [ruxolitinib] + CS(=O)(=O)c1ccc(C(=O)Nc2ccc(Cl)c(-c3ccccn3)c2)c(Cl)c1 [vismodegib] (first compound 5 µM, partner dose 5 µM) | 70.7 | 76.6 | 96.1 | 94.5 | 135 | 70.9 | 87 | 75.9 | 81.4 | 67.1
